Measurements from the supplement of paper PMC11741623.
The other results are listed elsewhere or left out. Interaction screen of human proteins with wild-type SARS-CoV-2 proteins by split-DHFR complementation in yeast, 1 µg/mL methotrexate. Value = fitness of the pair (three or more lineages) minus that of the viral protein without a human partner, on a scale set by negative (0) and fused positive (1) controls, mean of up to three cultures; higher = more likely to interact. Active = false discovery rate below 0.05 (one-sided t-test) in at least one culture. Nearly all pairs are not hits, and differences among them are mostly noise (correlation between cultures about 0.3); most hits were seen in one culture only. Human sequences are the Swiss-Prot entries looked up by gene name; the clone may be another isoform. NSP2 values were corrected by the authors for a growth advantage. Listed are human proteins with a hit and a random twelfth of the others.

B1: ALOX15, P16050 (protein)
chain: MGLYRIRVSTGASLYAGSNNQVQLWLVGQHGEAALGKRLWPARGKETELKVEVPEYLGPLLFVKLRKRHLLKDDAWFCNWISVQGPGAGDEVRFPCYRWVEGNGVLSLPEGTGRTVGEDPQGLFQKHREEELEERRKLYRWGNWKDGLILNMAGAKLYDLPVDERFLEDKRVDFEVSLAKGLADLAIKDSLNVLTCWKDLDDFNRIFWCGQSKLAERVRDSWKEDALFGYQFLNGANPVVLRRSAHLPARLVFPPGMEELQAQLEKELEGGTLFEADFSLLDGIKANVILCSQQHLAAPLVMLKLQPDGKLLPMVIQLQLPRTGSPPPPLFLPTDPPMAWLLAKCWVRSSDFQLHELQSHLLRGHLMAEVIVVATMRCLPSIHPIFKLIIPHLRYTLEINVRARTGLVSDMGIFDQIMSTGGGGHVQLLKQAGAFLTYSSFCPPDDLADRGLLGVKSSFYAQDALRLWEIIYRYVEGIVSLHYKTDVAVKDDPELQTWCREITEIGLQGAQDRGFPVSLQARDQVCHFVTMCIFTCTGQHASVHLGQLDWYSWVPNAPCTMRLPPPTTKDATLETVMATLPNFHQASLQMSITWQLGRRQPVMVAVGQHEEEYFSGPEPKAVLKKFREELAALDKEIEIRNAKLDMPYEYLRPSVVENSVAI
B2: PRSS50, Q9UI38 (protein)
chain: MGRWCQTVARGQRPRTSAPSRAGALLLLLLLLRSAGCWGAGEAPGALSTADPADQSVQCVPKATCPSSRPRLLWQTPTTQTLPSTTMETQFPVSEGKVDPYRSCGFSYEQDPTLRDPEAVARRWPWMVSVRANGTHICAGTIIASQWVLTVAHCLIWRDVIYSVRVGSPWIDQMTQTASDVPVLQVIMHSRYRAQRFWSWVGQANDIGLLKLKQELKYSNYVRPICLPGTDYVLKDHSRCTVTGWGLSKADGMWPQFRTIQEKEVIILNNKECDNFYHNFTKIPTLVQIIKSQMMCAEDTHREKFCYELTGEPLVCSMEGTWYLVGLVSWGAGCQKSEAPPIYLQVSSYQHWIWDCLNGQALALPAPSRTLLLALPLPLSLLAAL
B3: EPHA1, P21709 (protein)
chain: MERRWPLGLGLVLLLCAPLPPGARAKEVTLMDTSKAQGELGWLLDPPKDGWSEQQQILNGTPLYMYQDCPMQGRRDTDHWLRSNWIYRGEEASRVHVELQFTVRDCKSFPGGAGPLGCKETFNLLYMESDQDVGIQLRRPLFQKVTTVAADQSFTIRDLVSGSVKLNVERCSLGRLTRRGLYLAFHNPGACVALVSVRVFYQRCPETLNGLAQFPDTLPGPAGLVEVAGTCLPHARASPRPSGAPRMHCSPDGEWLVPVGRCHCEPGYEEGGSGEACVACPSGSYRMDMDTPHCLTCPQQSTAESEGATICTCESGHYRAPGEGPQVACTGPPSAPRNLSFSASGTQLSLRWEPPADTGGRQDVRYSVRCSQCQGTAQDGGPCQPCGVGVHFSPGARGLTTPAVHVNGLEPYANYTFNVEAQNGVSGLGSSGHASTSVSISMGHAESLSGLSLRLVKKEPRQLELTWAGSRPRSPGANLTYELHVLNQDEERYQMVLEPRVLLTELQPDTTYIVRVRMLTPLGPGPFSPDHEFRTSPPVSRGLTGGEIVAVIFGLLLGAALLLGILVFRSRRAQRQRQQRQRDRATDVDREDKLWLKPYVDLQAYEDPAQGALDFTRELDPAWLMVDTVIGEGEFGEVYRGTLRLPSQDCKTVAIKTLKDTSPGGQWWNFLREATIMGQFSHPHILHLEGVVTKRKPIMIITEFMENGALDAFLREREDQLVPGQLVAMLQGIASGMNYLSNHNYVHRDLAARNILVNQNLCCKVSDFGLTRLLDDFDGTYETQGGKIPIRWTAPEAIAHRIFTTASDVWSFGIVMWEVLSFGDKPYGEMSNQEVMKSIEDGYRLPPPVDCPAPLYELMKNCWAYDRARRPHFQKLQAHLEQLLANPHSLRTIANFDPRMTLRLPSLSGSDGIPYRTVSEWLESIRMKRYILHFHSAGLDTMECVLELTAEDLTQMGITLPGHQKRILCSIQGFKD
B4: DGAT2, Q96PD7 (protein)
chain: MKTLIAAYSGVLRGERQAEADRSQRSHGGPALSREGSGRWGTGSSILSALQDLFSVTWLNRSKVEKQLQVISVLQWVLSFLVLGVACSAILMYIFCTDCWLIAVLYFTWLVFDWNTPKKGGRRSQWVRNWAVWRYFRDYFPIQLVKTHNLLTTRNYIFGYHPHGIMGLGAFCNFSTEATEVSKKFPGIRPYLATLAGNFRMPVLREYLMSGGICPVSRDTIDYLLSKNGSGNAIIIVVGGAAESLSSMPGKNAVTLRNRKGFVKLALRHGADLVPIYSFGENEVYKQVIFEEGSWGRWVQKKFQKYIGFAPCIFHGRGLFSSDTWGLVPYSKPITTVVGEPITIPKLEHPTQQDIDLYHTMYMEALVKLFDKHKTKFGLPETEVLEVN
B5: PCGF6, Q9BYE7 (protein)
chain: MEGVAVVTAGSVGAAKTEGAAALPPPPPVSPPALTPAPAAGEEGPAPLSETGAPGCSGSRPPELEPERSLGRFRGRFEDEDEELEEEEELEEEEEEEEEDMSHFSLRLEGGRQDSEDEEERLINLSELTPYILCSICKGYLIDATTITECLHTFCKSCIVRHFYYSNRCPKCNIVVHQTQPLYNIRLDRQLQDIVYKLVINLEEREKKQMHDFYKERGLEVPKPAVPQPVPSSKGRSKKVLESVFRIPPELDMSLLLEFIGANEGTGHFKPLEKKFVRVSGEATIGHVEKFLRRKMGLDPACQVDIICGDHLLEQYQTLREIRRAIGDAAMQDGLLVLHYGLVVSPLKIT
B6: ARMCX5, Q6P1M9 (protein)
chain: MVDSGTEARARGKAEAGLQDGISGPATARVNGKTQAEAVAEAELKTESVTQAKAGDGAMTRTHTVTYREAMAVTREVIKVEDTTKTRVMVETKTKPLAERSIVPQTKSKAMPMSRVSTVTKSEVKVVAVIEANIRSYAKSHDKANTGSRPDRREETSIGMKSSDEDEENICSWFWTGEEPSVGSWFWPEEETSLQVYKPLPKIQEKPKPTHKPTLTIKQKVIAWSRARYIVLVPVEGGEQSLPPEGNWTLVETLIETPLGIRPLTKIPPYHGPYYQTLAEIKKQIRQREKYGPNPKACHCKSRGFSLEPKEFDKLVALLKLTKDPFIHEIATMIMGISPAYPFTQDIIHDVGITVMIENLVNNPNVKEHPGALSMVDDSSESSEEPKSGESYIHQVCKGIISCPLNSPVQLAGLKLLGHLSIKFEDHYVITSYIPDFLTLLNKGSVKTKFYVLKVFSCLSKNHANTRELISAKVLSSLVAPFNKNESKANILNIIEIFENINFQFKTKAKLFTKEKFTKSELISIFQEAKQFGQKLQDLAEHSDPEVRDKVIRLILKL
B7: ISLR, O14498 (protein)
chain: MQELHLLWWALLLGLAQACPEPCDCGEKYGFQIADCAYRDLESVPPGFPANVTTLSLSANRLPGLPEGAFREVPLLQSLWLAHNEIRTVAAGALASLSHLKSLDLSHNLISDFAWSDLHNLSALQLLKMDSNELTFIPRDAFRSLRALRSLQLNHNRLHTLAEGTFTPLTALSHLQINENPFDCTCGIVWLKTWALTTAVSIPEQDNIACTSPHVLKGTPLSRLPPLPCSAPSVQLSYQPSQDGAELRPGFVLALHCDVDGQPAPQLHWHIQIPSGIVEITSPNVGTDGRALPGTPVASSQPRFQAFANGSLLIPDFGKLEEGTYSCLATNELGSAESSVDVALATPGEGGEDTLGRRFHGKAVEGKGCYTVDNEVQPSGPEDNVVIIYLSRAGNPEAAVAEGVPGQLPPGLLLLGQSLLLFFFLTSF
B8: SLC24A5, Q71RS6 (protein)
chain: MQTKGGQTWARRALLLGILWATAHLPLSGTSLPQRLPRATGNSTQCVISPSSEFPEGFFTRQERRDGGIIIYFLIIVYMFMAISIVCDEYFLPSLEIISESLGLSQDVAGTTFMAAGSSAPELVTAFLGVFITKGDIGISTILGSAIYNLLGICAACGLLSNTVSTLSCWPLFRDCAAYTISAAAVLGIIYDNQVYWYEGALLLLIYGLYVLVLCFDIKINQYIIKKCSPCCACLAKAMERSEQQPLMGWEDEGQPFIRRQSRTDSGIFYEDSGYSQLSISLHGLSQVSEDPPSVFNMPEADLKRIFWVLSLPIITLLFLTTPDCRKKFWKNYFVITFFMSAIWISAFTYILVWMVTITGETLEIPDTVMGLTLLAAGTSIPDTIASVLVARKGKGDMAMSNIVGSNVFDMLCLGIPWFIKTAFINGSAPAEVNSRGLTYITISLNISIIFLFLAVHFNGWKLDRKLGIVCLLSYLGLATLSVLYELGIIGNNKIRGCGG
B9: PPIL1, Q9Y3C6 (protein)
chain: MAAIPPDSWQPPNVYLETSMGIIVLELYWKHAPKTCKNFAELARRGYYNGTKFHRIIKDFMIQGGDPTGTGRGGASIYGKQFEDELHPDLKFTGAGILAMANAGPDTNGSQFFVTLAPTQWLDGKHTIFGRVCQGIGMVNRVGMVETNSQDRPVDDVKIIKAYPSG
B10: LRP2BP, Q9P2M1 (protein)
chain: MKLTSEKLPKNPFYASVSQYAAKNQKFFQWKKEKTDYTHANLVDKALQLLKERILKGDTLAYFLRGQLYFEEGWYEEALEQFEEIKEKDHQATYQLGVMYYDGLGTTLDAEKGVDYMKKILDSPCPKARHLKFAAAYNLGRAYYEGKGVKRSNEEAERLWLIAADNGNPKASVKAQSMLGLYYSTKEPKELEKAFYWHSEACGNGNLESQGALGLMYLYGQGIRQDTEAALQCLREAAERGNVYAQGNLVEYYYKMKFFTKCVAFSKRIADYDEVHDIPMIAQVTDCLPEFIGRGMAMASFYHARCLQLGLGITRDETTAKHYYSKACRLNPALADELHSLLIRQRI
B11: BEX5, Q5H9J7 (protein)
chain: MENVPKENKVVEKAPVQNEAPALGGGEYQEPGGNVKGVWAPPAPGFGEDVPNRLVDNIDMIDGDGDDMERFMEEMRELRRKIRELQLRYSLRILIGDPPHHDHHDEFCLMP

Target: SARS-CoV-2 NSP13
Assay: yeast fitness gain over the viral ORF with no human partner (scaled fitness); higher = more likely to interact
Method: (§1)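 Split mouse DHFR complementation in pooled diploid yeast: human ORFeome clones carry one fragment and viral ORFs the other; barcoded lineages compete in 1 µg/mL methotrexate and fitness is read by barcode sequencing in up to three cultures.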

Binder | yeast fitness gain
B1 | inactive: 0.0328
B2 | inactive: 0.0301
B3 | inactive: -0.133
B4 | inactive: -0.143
B5 | inactive: -0.177
B6 | inactive: -0.119
B7 | inactive: -0.149
B8 | inactive: -0.214
B9 | inactive: -0.333
B10 | inactive: -0.194
B11 | inactive: -0.0379

Target: SARS-CoV-2 ORF9B
Assay: as above
Method: as §1

Binder | yeast fitness gain
B2 | inactive: -0.293
B3 | inactive: -0.0773
B6 | inactive: 0.0259
B7 | inactive: -0.14
B8 | inactive: 0.0097
B9 | inactive: -0.0581
B11 | inactive: 0.0496

Target: SARS-CoV-2 ORF3B
Assay: as above
Method: as §1

Binder | yeast fitness gain
B3 | inactive: -0.0994
B9 | inactive: -0.0615

Target: SARS-CoV-2 NSP2
Assay: as above
Method: as §1

Binder | yeast fitness gain
B4 | inactive: -0.148
B5 | inactive: -0.478
B9 | inactive: -0.282
B11 | inactive: -0.343

Target: SARS-CoV-2 ORF8
Assay: as above
Method: as §1

Binder | yeast fitness gain
B5 | inactive: -0.107
B8 | inactive: -0.000582
B9 | inactive: -0.0943

Target: SARS-CoV-2 NSP15
Assay: as above
Method: as §1

Binder | yeast fitness gain
B6 | inactive: -0.126

Target: SARS-CoV-2 ORF7B
Assay: as above
Method: as §1

Binder | yeast fitness gain
B6 | inactive: 0.0704
B7 | inactive: -0.0188
B9 | inactive: -0.205

Target: SARS-CoV-2 ORF6
Assay: as above
Method: as §1

Binder | yeast fitness gain
B7 | inactive: -0.264
B9 | inactive: 0.0636
B11 | inactive: 0.0312

Target: SARS-CoV-2 ORF10
Assay: as above
Method: as §1

Binder | yeast fitness gain
B9 | inactive: -0.131

Target: SARS-CoV-2 NSP5
Assay: as above
Method: as §1

Binder | yeast fitness gain
B11 | inactive: -0.0219
